Source: patent publication US9200265B2, “Anti-cocaine compositions and treatment” (priority 2006, dated 2015)

B1: Ser117Ala (protein, UniProt Q9L9D7 1-574, looked up, variant S117A)
Cocaine esterase: MVDGNYSVASNVMVPMRDGVRLAVDLYRPDADGPVPVLLVRNPYDKFDVFAWSTQSTNWLEFVRDGYAVVIQDTRGLFASEGEFVPHVDDEADAEDTLSWILEQAWCDGNVGMFGVAYLGVTQWQAAVSGVGGLKAIAPSMASADLYRAPWYGPGGALSVEALLGWSALIGTGLITSRSDARPEDAADFVQLAAILNDVAGAASVTPLAEQPLLGRLIPWVIDQVVDHPDNDESWQSISLFERLGGLATPALITAGWYDGFVGESLRTFVAVKDNADARLVVGPWSHSNLTGRNADRKFGIAATYPIQEATTMHKAFFDRHLRGETDALAGVPKVRLFVMGIDEWRDETDWPLPDTAYTPFYLGGSGAANTSTGGGTLSTSISGTESADTYLYDPADPVPSLGGTLLFHNGDNGPADQRPIHDRDDVLCYSTEVLTDPVEVTGTVSARLFVSSSAVDTDFTAKLVDVFPDGRAIALCDGIVRMRYRETLVNPTLIEAGEIYEVAIDMLATSNVFLPGHRIMVQVSSSNFPKYDRNSNTGGVIAREQLEEMCTAVNRIHRGPEHPSHIVLPIIKR
B2: Tyr44Phe (protein, UniProt Q9L9D7 1-574, looked up, variant Y44F)
Cocaine esterase: B1 Cocaine esterase with Y44F, A117S

Tested on: cocaine-induced lethality
Assay: Rodent model of acute cocaine toxicity (convulsions and lethality) in rats
Details: 1 mg i.v. one minute before 180 mg/kg cocaine i.p.

Molecule	protective effect against cocaine (convulsions and lethality)
B1	no protective effects
B2	no protective effects

Residue numbers refer to the chain shown, from its start.
